Measured values taken from the RNAGym collection of RNA variant scans (doi:10.1073/pnas.2313332121).
This sample is rich in variants without activity.

B1: TPR 5TU (parent)
chain: GGAUCUUCUCGAUCUAACAAAAAAGACAAAUCUGCCACAAAGCUUGAGAGCAUCUUCGGAUGCAGAGGCGGCAGCCUUCGGUGGCGCGAUAGCGCCAACGUUCUCAACUAUGACACGCAAAACGCGUGCUCCGUUGAAUGGAGUUUAUCAUG

Variants of: B1
Assay: polymerase ribozyme fitness, log enrichment relative to wild type (log ratio); higher = more active; in vitro selection for triplet polymerase activity
Summary of the method: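 Mutant libraries of both subunits of a heterodimeric triplet polymerase ribozyme were PCR-built, transcribed, and selected once in triplicate, with frozen incubation at −7 °C and capture of gel-excised extended constructs on streptavidin beads before RT-PCR. Illumina sequencing of input and output libraries was filtered to genotypes with ≥10 input reads and ≥1 read per output. Fitness is the logarithm of genotype enrichment over wild-type enrichment, using inverse-variance-weighted replicate averages. The logarithm is base 2.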

Row | Variant | polymerase ribozyme fitness (log ratio)
1 | U33A U45G C69G C76G C85U C93U | ≤ -4.2
2 | U33A G81U U82G G92U G152A | ≤ -4.2
3 | C32G A39C A41C A52U G94C C116G | ≤ -4.2
4 | C32U C87G A142U | ≤ -4.2
5 | C32G G34U U55A U56A G80A U134A | ≤ -4.2
6 | C32U G84A G112C C116U | ≤ -4.2
7 | C32G C38A C79G G126U U135C U148A U151G | ≤ -4.2
8 | C32U A60U A73U C93U | ≤ -4.2
9 | C32G U33A C43G G81U G84A A142G | ≤ -4.2
10 | U31G C43G U53A G83U | ≤ -4.2
11 | C32U G59U G81A G126U G141U A142U | ≤ -4.2
12 | U33A U77G G117A U135C U139C C149U | ≤ -4.2
13 | U31G A73C U127C | ≤ -4.2
14 | C32A A113U | ≤ -4.2
15 | C32U G48A G84C G141A | ≤ -4.2
16 | C32G C57U G62C C85U G88U A98U C105U A119G | ≤ -4.2
17 | C32G U55A G92U C149U | ≤ -4.2
18 | C32G G71U C87G C114U U146G | ≤ -4.2
19 | C32A G70A | ≤ -4.2
20 | C32G C38A C79G G83U G88U U102C U104A U109C C131A G136A | ≤ -4.2
21 | U31G C51G C75G C76A | ≤ -4.2

Row | Variant | polymerase ribozyme fitness (log ratio)
22 | C32U C35A G88A A91G C93G C103U G126A U151A | ≤ -4.2
23 | U33A G88U A120U | ≤ -4.2
24 | U31G U55A G59C C79A C85U C116A A138U U151G | ≤ -4.2
25 | C32G U45A C54A C75U G88U A142U | ≤ -4.2
26 | U31G U78G C95A | ≤ -4.2
27 | C32A C36A A60C U139C | ≤ -4.2
28 | C32G U55A C79A C116G C149A | ≤ -4.2
29 | U31C U55A A97G | 1.27
30 | C32G G50U U104C A107G G126C U146G | ≤ -4.2
31 | C32G A49U C57G C63A C93G | ≤ -4.2
32 | C32A C87A A115C | ≤ -4.2
33 | U31G C43A G94C G128A G141U G152U | ≤ -4.2
34 | C32A G59C C87A C118G | ≤ -4.2
35 | U33C G84U G141U | ≤ -4.2
36 | C32U C87A | ≤ -4.2
37 | U31G C38G U101G U139C U146G | -4.03
38 | C32G G42A G59A C79U A115G C132U | ≤ -4.2
39 | C32U A66C U104A U109G | ≤ -4.2
40 | C32U U61A C93U G128U | ≤ -4.2
41 | C32A G62C C69U C87U U148A G152U | ≤ -4.2
42 | U31G G50A C51U G62C G68U C95U U101G A106C | ≤ -4.2

Row | Variant | polymerase ribozyme fitness (log ratio)
43 | C32G C36U C54A G83U G128U | ≤ -4.2
44 | U33A U53A U56A G80A C95G C99U C132A | ≤ -4.2
45 | U33A U56A G80C G94A G100U U135A | ≤ -4.2
46 | U31G A37C U61A G126C U145C | ≤ -4.2
47 | U31G A110C A138C | ≤ -4.2
48 | U33A A52U G86U C87A U109A | ≤ -4.2
49 | C32G C76G C132G | ≤ -4.2
50 | C32U U55A | -1.62
51 | U31G C35U A66G G68C G74U C76G G84A C93A | ≤ -4.2
52 | C32G G59C A66G U102A | ≤ -4.2
53 | C32U A40U C125G | ≤ -4.2
54 | U33A U53A C79A G84U A89G A107C A137U | ≤ -4.2
55 | C32G U56A U135G U144A | ≤ -4.2
56 | U33A G68C C85U C96A | ≤ -4.2
57 | U33C G71C | ≤ -4.2
58 | C32G U77A C93U C114U G124C | ≤ -4.2
59 | U33A G62C C85U A137U | ≤ -4.2
60 | C32G C87A A115C | ≤ -4.2
61 | C32A A37U | ≤ -4.2
62 | C32G C36U U53A C54G A91U A106C G136A | ≤ -4.2
63 | U31G U44A A66G C99G C114U G124U C149A | ≤ -4.2

Row | Variant | polymerase ribozyme fitness (log ratio)
64 | U31G U56A G68A C95U A115U | ≤ -4.2
65 | U31G U61A A66U U77A G86U C95G C123G | ≤ -4.2
66 | U31G A39G U55A A66C G68C C69U G117A | ≤ -4.2
67 | U33C A47C G100A U144A | ≤ -4.2
68 | C32A A41C A60G C85A U144C | ≤ -4.2
69 | U31G C43U C57U C93G A122C | ≤ -4.2
70 | U33C C51U G59C C63A A120C C125G U134G | ≤ -4.2
71 | C32G U55A C96A A119G | ≤ -4.2
72 | C32A G42U G81C G88A C99U | ≤ -4.2
73 | U31G G59U A138U | ≤ -4.2
74 | C32A U44G G58C U146G | ≤ -4.2
75 | C32U C36A C87G G124A | ≤ -4.2
76 | C32U U33G A41C C51U C118U | ≤ -4.2
77 | C32G G50A C57A G74A U101G A119U A137G G140C | ≤ -4.2
78 | U31G A52G G92A C99G | ≤ -4.2
79 | U31G C85U C87A U109G G128A | ≤ -4.2
80 | U31C U45A G70C G92C | ≤ -4.2
81 | C32G U45G U55A G71U G94A C96G C149A | ≤ -4.2
82 | U31G G94U A119U | -0.547
83 | U31G G74U C108U | ≤ -4.2
